The antibiotic and cytotoxicity screens of Wong et al. (2023)
The other results are listed elsewhere or left out.

Tests used:
[1] = tested on: HSkMC (human skeletal muscle cells); experiment: cytotoxicity call (relative viability < 0.9); details: 10 µM
[2] = tested on: S. aureus RN4220; experiment: growth inhibition call (relative growth <= 0.2); details: 50 µM

Row | Structure (SMILES) | cytotoxicity call [1] | growth inhibition call [2]
1 | COc1cccc(-c2ccc3c(c2)O[C@@H](CN(C)C(=O)C2CC2)[C@@H](C)CN([C@H](C)CO)S3(=O)=O)c1 | inactive | inactive
2 | C[C@H]1CN([C@@H](C)CO)C(=O)c2c(c3ccccc3n2C)-c2ccccc2CO[C@@H]1CN(C)Cc1cccc(F)c1 | inactive | inactive
3 | O=C(NO)c1cccc(C(=O)N/N=C/c2cc(I)cc(I)c2O)c1 | inactive | inactive
4 | Cc1noc(C)c1S(=O)(=O)Nc1ccc2c(c1)C(=O)N([C@H](C)CO)C[C@H](C)[C@@H](CN(C)C)OCCCC[C@H](C)O2 | inactive | inactive
5 | CC(C)NC(=O)Nc1ccc2c(c1)C(=O)N([C@@H](C)CO)C[C@H](C)[C@@H](CN(C)C(=O)Nc1ccc(F)cc1)OCCCC[C@H](C)O2 | inactive | inactive
6 | CC(C)NC(=O)N(C)C[C@H]1Oc2ccc(NC(=O)CCC(F)(F)F)cc2C(=O)N([C@H](C)CO)C[C@H]1C | inactive | inactive
7 | CO[C@@H]1CN(C)C(=O)c2ccc(NC(=O)Nc3ccccc3F)cc2OC[C@@H](C)N(Cc2ccccc2F)C[C@H]1C | inactive | inactive
8 | C[C@H]1CN([C@@H](C)CO)C(=O)CCCn2cc(nn2)CO[C@H]1CN(C)Cc1ccc2c(c1)OCCN2C | inactive | inactive
9 | CC(C)C[C@@H]1NC(=O)[C@@H]2C[C@H](C(=O)NCCCCCNC(=O)CS)[C@H](c3ccc(O)cc3)N2C1=O | inactive | inactive
10 | C[C@@H]1CN([C@@H](C)CO)C(=O)c2cccc(NS(=O)(=O)c3cccs3)c2O[C@H]1CN(C)S(=O)(=O)c1ccc(F)cc1 | inactive | inactive
11 | C[C@@H]1CN([C@H](C)CO)C(=O)Cc2cc(NC(=O)Cc3ccccc3)ccc2O[C@H]1CN(C)Cc1ccc(C(F)(F)F)cc1 | inactive | inactive
12 | CC(=O)Oc1cccc(O)c1 | inactive | inactive
13 | C[C@@H]1CN([C@H](C)CO)C(=O)c2cccc(NC(=O)c3nc4ccccc4s3)c2O[C@@H]1CN(C)C(=O)Nc1ccc(C(F)(F)F)cc1 | inactive | inactive
14 | C[C@H]1CN([C@@H](C)CO)C(=O)c2cc(NC(=O)C3CC3)ccc2O[C@H]1CN(C)C(=O)NC1CCCCC1 | inactive | inactive
15 | Cc1ccc(S(=O)(=O)N[C@@H]2CC[C@@H](CCNC(=O)CN3CCOCC3)O[C@@H]2CO)cc1 | inactive | inactive
16 | C[C@H]1CN([C@@H](C)CO)C(=O)c2cccc(NC(=O)Nc3ccccc3)c2O[C@@H]1CN(C)Cc1ccc(Oc2ccccc2)cc1 | active | inactive
17 | CC(/C=C/C(=O)NO)=C\c1ccccc1OCc1cn(CC[C@@H]2OC(=O)[C@H](Cc3ccccc3)N3CC4=C[C@@H](C5CC5)n5c(=O)n(C)c(=O)n5[C@H]4[C@H]23)nn1 | inactive | inactive
18 | Cc1ccc(S(=O)(=O)N(C)C[C@H]2Oc3ccc(NS(C)(=O)=O)cc3CC(=O)N([C@H](C)CO)C[C@@H]2C)cc1 | inactive | inactive
19 | C[C@H](CO)N1C[C@H](C)[C@@H](CN(C)S(=O)(=O)c2ccc(F)cc2)Oc2ccc(NS(=O)(=O)c3cccs3)cc2CC1=O | inactive | inactive
20 | COCc1cc(C)nc(N)c1C#N | inactive | inactive

Row | Structure (SMILES) | cytotoxicity call [1] | growth inhibition call [2]
21 | COCC(=O)N(C)C[C@H]1Oc2cc(C#C[C@@H](C)O)ccc2S(=O)(=O)N([C@@H](C)CO)C[C@H]1C | inactive | inactive
22 | C[C@@H]1CN([C@@H](C)CO)C(=O)c2cc(C#Cc3ccccc3F)cnc2O[C@H]1CN(C)C(=O)Cc1ccncc1 | inactive | inactive
23 | C[C@@H]1CCCCO[C@@H](CN(C)Cc2ccc(C(=O)Nc3ccccc3N)cc2)[C@@H](C)CN([C@H](C)CO)C(=O)c2cc(NC(=O)Cc3ccccc3)ccc2O1 | inactive | inactive
24 | COc1ccc(S(=O)(=O)Nc2ccc3c(c2)C(=O)N([C@H](C)CO)C[C@@H](C)[C@@H](CN(C)S(=O)(=O)c2ccc(Cl)cc2)OCCCC[C@H](C)O3)cc1 | inactive | inactive
25 | CC(C)NC(=O)N(C)C[C@H]1Oc2c(NC(=O)NC3CCCCC3)cccc2C(=O)N([C@H](C)CO)C[C@H]1C | inactive | inactive
26 | C=CC(=O)Nc1ccccc1[C@@H](CCc1ccc(OC)c(OC)c1)OC(=O)[C@@H]1CCCCN1C(=O)C(=O)C(C)(C)CC | inactive | inactive
27 | C[C@H](CO)N1C[C@H](C)[C@@H](CN(C)Cc2cccc(C(=O)O)c2)Oc2ncc(C#CC(C)(C)O)cc2C1=O | inactive | inactive
28 | C[C@@H]1O[C@@H](O[C@@H]2CC[C@@]3(C)[C@@H](CC[C@]4(C)[C@@H]3CC=C3[C@@H]5CC(C)(C)CC[C@]5(C(=O)O[C@@H]5O[C@H](CO[C@@H]6O[C@H](CO)[C@@H](O)[C@H](O)[C@H]6O)[C@@H](O)[C@H](O)[C@H]5O)CC[C@]34C)[C@]2(C)CO)[C@H](O)[C@H](O[C@@H]2OC[C@@H](O)[C@H](O)[C@H]2O)[C@H]1O | inactive | inactive
29 | C[C@@H]1CCCCO[C@H](CN(C)C(=O)Nc2cccc3ccccc23)[C@H](C)CN([C@@H](C)CO)C(=O)c2cc(NC(=O)Nc3ccc4c(c3)OCO4)ccc2O1 | inactive | inactive
30 | C[C@@H]1CN([C@@H](C)CO)S(=O)(=O)c2ccc(Br)cc2O[C@@H]1CN(C)C(=O)c1ccncc1 | inactive | inactive
31 | C[C@@H]1CCCCO[C@H](CN(C)C(=O)NC2CCCCC2)[C@H](C)CN([C@@H](C)CO)C(=O)c2cc(NC(=O)C3CCCCC3)ccc2O1 | inactive | inactive
32 | C=C[C@](C)(O)CCC[C@H](C)CCC[C@H](C)CCCC(C)C | inactive | inactive
33 | C[C@@H]1CCCCO[C@H](CN(C)S(=O)(=O)c2cccs2)[C@H](C)CN([C@H](C)CO)C(=O)c2cc(NC(=O)NC3CCCCC3)ccc2O1 | inactive | inactive
34 | Cc1ccc(S(=O)(=O)Nc2ccc3c(c2)C(=O)N([C@H](C)CO)C[C@H](C)[C@@H](CN(C)Cc2ccc(C(F)(F)F)cc2)OCCCC[C@@H](C)O3)cc1 | inactive | inactive
35 | COc1ccc(S(=O)(=O)Nc2ccc3c(c2)C(=O)N([C@H](C)CO)C[C@H](C)[C@H](CN(C)CC2CCCCC2)OCCCC[C@H](C)O3)cc1 | inactive | inactive
36 | COc1ccc(NC(=O)N[C@@H]2CC[C@H](CCNC(=O)CN3CCOCC3)O[C@@H]2CO)cc1 | inactive | inactive
37 | Cn1c(=O)cc(N2CCC[C@@H](N)C2)n(Cc2ccccc2C#N)c1=O | inactive | inactive
38 | C[C@@H]1CN([C@@H](C)CO)C(=O)c2cc(NC(=O)CCCCCC(=O)Nc3ccccc3N)ccc2O[C@H]1CN(C)C(=O)Nc1cccc2ccccc12 | inactive | inactive
39 | C/C=C/c1ccc2c(c1)O[C@H](CN(C)S(=O)(=O)c1ccc(F)cc1)[C@H](C)CN([C@H](C)CO)S2(=O)=O | inactive | inactive
40 | COc1ccc(NC(=O)Nc2ccc3c(c2)C(=O)N([C@H](C)CO)C[C@H](C)[C@@H](CN(C)S(=O)(=O)c2ccc(F)cc2)OCCCC[C@@H](C)O3)cc1 | inactive | inactive

Row | Structure (SMILES) | cytotoxicity call [1] | growth inhibition call [2]
41 | C[C@H](CO)N1C[C@H](C)[C@H](CN(C)S(=O)(=O)c2ccc(F)cc2)Oc2ncc(Br)cc2C1=O | inactive | inactive
42 | COCCNC(=O)C[C@H]1CC[C@H]2[C@@H](COC[C@H](O)CN2C(=O)Nc2ccccc2OC)O1 | inactive | inactive
43 | C[C@H](CO)N1C[C@H](C)[C@@H](CN(C)Cc2ccccc2)Oc2ccc(NC(=O)CCCN(C)C)cc2C1=O | inactive | inactive
44 | COC(=O)c1c(CC[C@@H](CO)NC(=O)N[C@H](Cn2cc(C3(O)CCCCC3)nn2)C(C)C)oc(C(C)=O)c1C(=O)OC | inactive | inactive
45 | C[C@H](CO)N1C[C@H](C)[C@H](CN(C)S(=O)(=O)c2ccc(Cl)cc2)Oc2ccc(NC(=O)CCN3CCOCC3)cc2C1=O | inactive | inactive
46 | CCS(=O)(=O)N1CC[C@]2(CC1)CN([C@@H](CO)c1[nH]c3cc(ccc3c12)OC)C(=O)c1ccc(cc1)F | inactive | inactive
47 | CCOC(=O)[C@H]1CC(C)=NNC1=O | inactive | inactive
48 | COC(=O)C1C(O)CCC2CN3CCc4c([nH]c5ccccc45)C3CC21 (stereo unspecified) | inactive | inactive
49 | C[C@H](CO)N1C[C@H](C)[C@@H](CN(C)C(=O)Nc2cccc(Cl)c2Cl)OCc2ccccc2-c2ccccc2C1=O | inactive | inactive
50 | C[C@@H]1CN([C@@H](C)CO)C(=O)c2cccc(NC(=O)Nc3ccc(F)cc3)c2O[C@@H]1CN(C)Cc1ccc(Cl)c(Cl)c1 | active | inactive
51 | C[C@@H]1CN([C@@H](C)CO)C(=O)Cc2cc(NC(=O)Cn3cnnn3)ccc2O[C@@H]1CN(C)S(=O)(=O)c1cn(C)cn1 | inactive | inactive
52 | C[C@H]1CCCCO[C@H](CN(C)Cc2ccc(C(F)(F)F)cc2)[C@@H](C)CN([C@@H](C)CO)C(=O)c2cc(NC(=O)c3ccncc3)ccc2O1 | inactive | inactive
53 | C[C@H](CO)N1C[C@H](C)[C@@H](CN(C)S(C)(=O)=O)OCCCC[C@H](C)Oc2ccc(NC(=O)Nc3ccc(C(F)(F)F)cc3)cc2C1=O | inactive | inactive
54 | C[C@@H]1CCCCO[C@@H](CN(C)C)[C@H](C)CN([C@H](C)CO)C(=O)c2cc(NC(=O)Nc3cccc4ccccc34)ccc2O1 | inactive | inactive
55 | Cc1noc(C)c1NC(=O)Nc1ccc2c(c1)C(=O)N([C@H](C)CO)C[C@@H](C)[C@H](CN(C)C(=O)Nc1ccccc1)OCCCC[C@@H](C)O2 | inactive | inactive
56 | C[C@@H]1CCCCO[C@@H](CN(C)Cc2ccccc2)[C@H](C)CN([C@H](C)CO)C(=O)c2cc(NC(=O)C3CCCCC3)ccc2O1 | inactive | inactive
57 | CCOC(=O)c1c(CN2CCN(c3ccccc3)CC2)n(-c2ccccc2)c2cc(Br)c(O)cc12 | active | inactive
58 | C[C@@H]1CCCCO[C@@H](CN(C)Cc2ccc(C(=O)O)cc2)[C@H](C)CN([C@@H](C)CO)C(=O)c2cc(NS(=O)(=O)c3ccc(F)cc3)ccc2O1 | inactive | inactive
